Drawing on article PMC3483296, this text covers binding for five molecules.

Substitutions are numbered along the chain they refer to. Names and notes keep the numbering of the source. Results are given in words; binding and its absence hold for the method and conditions named. Some binding calls cover weakened binding; strength is not graded here.

Experiment in all cases: two-hybrid; Gal4 system; Grr1 forms as baits in pAS2 (PJ69-4a) mated with PJ69-4α cells holding the prey plasmids (Gal4 activation domain fusions); interaction read as growth of diploids on CM-Trp-Leu-His-Ade
Test [1] has as its target T1, Grr1ΔF (Grr1 lacking the F box) (budding yeast) (UniProt P24814).
T1 sequence: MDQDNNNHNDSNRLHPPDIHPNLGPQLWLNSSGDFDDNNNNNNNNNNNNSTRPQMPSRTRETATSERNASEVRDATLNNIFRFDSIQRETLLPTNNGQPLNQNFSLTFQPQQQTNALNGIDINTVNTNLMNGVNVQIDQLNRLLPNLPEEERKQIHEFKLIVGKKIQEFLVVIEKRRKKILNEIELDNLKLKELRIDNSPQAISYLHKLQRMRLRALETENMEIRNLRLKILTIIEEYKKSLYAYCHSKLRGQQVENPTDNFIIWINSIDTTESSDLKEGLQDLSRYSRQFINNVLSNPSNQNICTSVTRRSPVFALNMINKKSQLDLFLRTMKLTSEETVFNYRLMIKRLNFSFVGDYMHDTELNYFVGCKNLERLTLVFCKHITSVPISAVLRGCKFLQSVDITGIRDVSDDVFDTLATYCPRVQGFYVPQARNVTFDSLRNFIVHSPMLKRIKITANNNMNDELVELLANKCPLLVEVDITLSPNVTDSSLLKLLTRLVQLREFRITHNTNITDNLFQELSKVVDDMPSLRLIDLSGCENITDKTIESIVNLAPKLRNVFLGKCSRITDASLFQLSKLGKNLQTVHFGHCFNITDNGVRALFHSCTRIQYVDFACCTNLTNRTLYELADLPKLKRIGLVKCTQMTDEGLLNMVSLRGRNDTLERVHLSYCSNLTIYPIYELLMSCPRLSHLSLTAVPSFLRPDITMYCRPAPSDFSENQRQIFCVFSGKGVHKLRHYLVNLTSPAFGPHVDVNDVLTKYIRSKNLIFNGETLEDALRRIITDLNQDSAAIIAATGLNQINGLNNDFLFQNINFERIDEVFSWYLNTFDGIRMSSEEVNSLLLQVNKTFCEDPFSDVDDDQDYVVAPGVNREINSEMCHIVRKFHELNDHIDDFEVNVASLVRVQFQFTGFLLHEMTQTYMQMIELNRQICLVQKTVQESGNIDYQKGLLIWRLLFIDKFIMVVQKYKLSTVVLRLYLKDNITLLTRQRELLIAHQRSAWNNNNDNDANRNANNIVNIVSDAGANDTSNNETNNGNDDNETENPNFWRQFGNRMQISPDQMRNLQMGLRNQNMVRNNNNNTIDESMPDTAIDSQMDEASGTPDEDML

The target of test [2] is T2, Grr1ΔL (Grr1 lacking the leucine-rich repeats) (budding yeast) (UniProt P24814).
T2 sequence: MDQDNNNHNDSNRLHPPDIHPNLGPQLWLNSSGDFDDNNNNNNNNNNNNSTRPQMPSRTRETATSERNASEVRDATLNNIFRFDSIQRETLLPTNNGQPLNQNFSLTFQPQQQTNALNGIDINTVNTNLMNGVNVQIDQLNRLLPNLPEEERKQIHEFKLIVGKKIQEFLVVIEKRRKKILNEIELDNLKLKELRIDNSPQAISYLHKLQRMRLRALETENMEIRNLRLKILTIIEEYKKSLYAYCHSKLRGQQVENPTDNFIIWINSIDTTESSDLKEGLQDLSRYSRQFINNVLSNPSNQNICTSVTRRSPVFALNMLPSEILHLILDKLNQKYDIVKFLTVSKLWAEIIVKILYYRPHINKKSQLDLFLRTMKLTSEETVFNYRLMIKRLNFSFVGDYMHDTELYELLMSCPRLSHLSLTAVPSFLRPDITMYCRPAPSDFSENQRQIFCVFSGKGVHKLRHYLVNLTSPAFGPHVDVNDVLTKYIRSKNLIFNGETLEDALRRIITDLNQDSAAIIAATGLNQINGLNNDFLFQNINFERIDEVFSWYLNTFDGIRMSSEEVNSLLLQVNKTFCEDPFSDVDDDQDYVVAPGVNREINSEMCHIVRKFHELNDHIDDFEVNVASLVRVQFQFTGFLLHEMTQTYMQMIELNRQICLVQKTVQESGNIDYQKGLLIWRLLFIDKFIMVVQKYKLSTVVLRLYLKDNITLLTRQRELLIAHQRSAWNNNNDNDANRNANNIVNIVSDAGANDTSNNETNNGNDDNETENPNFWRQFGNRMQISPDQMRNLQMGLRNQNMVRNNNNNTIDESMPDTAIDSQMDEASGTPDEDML

Test [3] deals with T3, Grr1Δ(F+L) (Grr1 lacking the F box and the leucine-rich repeats) (budding yeast) (UniProt P24814).
T3 sequence: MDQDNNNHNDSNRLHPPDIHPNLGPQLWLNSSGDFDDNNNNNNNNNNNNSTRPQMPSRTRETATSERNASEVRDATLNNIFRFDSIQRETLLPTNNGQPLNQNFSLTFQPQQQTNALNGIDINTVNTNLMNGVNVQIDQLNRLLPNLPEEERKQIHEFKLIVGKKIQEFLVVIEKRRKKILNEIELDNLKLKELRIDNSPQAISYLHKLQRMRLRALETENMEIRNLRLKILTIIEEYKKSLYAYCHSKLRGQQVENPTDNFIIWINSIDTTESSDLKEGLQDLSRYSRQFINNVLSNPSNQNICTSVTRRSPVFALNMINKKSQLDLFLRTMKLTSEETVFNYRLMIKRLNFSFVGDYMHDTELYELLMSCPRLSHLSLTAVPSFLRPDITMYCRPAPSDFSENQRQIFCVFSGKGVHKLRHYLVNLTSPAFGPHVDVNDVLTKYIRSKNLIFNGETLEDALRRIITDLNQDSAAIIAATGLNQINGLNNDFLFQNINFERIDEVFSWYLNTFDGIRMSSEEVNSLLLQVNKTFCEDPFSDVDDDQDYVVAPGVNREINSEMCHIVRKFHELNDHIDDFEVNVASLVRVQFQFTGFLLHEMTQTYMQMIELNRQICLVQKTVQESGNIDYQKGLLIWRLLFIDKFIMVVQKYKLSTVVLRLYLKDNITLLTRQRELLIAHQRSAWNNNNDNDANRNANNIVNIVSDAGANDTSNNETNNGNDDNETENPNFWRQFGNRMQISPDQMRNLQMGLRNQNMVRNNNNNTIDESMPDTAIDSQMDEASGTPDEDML

B1: She3 (wild type) (protein, UniProt P38272 1-425)
chain: MSDQDNTQTSSSKLAPHHNIFMANLESSPTKDRNTSSQNASSSRVIESLHDQIDMLTKTNLQLTTQSQNLLSKLELAQSKESKLLENLNLLKNENENLNSIFERKNKKLKELEKDYSELSNRYNEQKEKMDQLSKLAKNSSAIEQSCSEKLQNMEVNYNSLLESQNLYRDHYSDEISKLNEKIGLLELELSNQNLNYGSDTSSNSDIELNLNKFNDSVKDLKSLETEKDSKLSKIITHSLDELNLQSWLNLYQTNENLISTFAEKMDLKDVLKRNDEKISNKGAVVQTLKKNVQTQVESNNADALSSNNAQDMLPIKMVKLRKTPNTNDSSSNGNSSNNKRRSFYTASPLLSSGSIPKSASPVLPGVKRTASVRKPSSSSSKTNVTHNNDPSTSPTISVPPGVTRTVSSTHKKKGNSMVVHGAQS
Consider B1, for which the values for the binding entry in test [1], in test [2] and in test [3] were “binds”, “no binding” and “no binding”, respectively.

B2: She3 (S199P) (protein, UniProt P38272 1-425)
chain: B1 chain with S199P
Turning to B2, in test [1], the binding entry is recorded as “no binding”.

B3: She3 (S202R) (protein, UniProt P38272 1-425)
chain: B1 chain with S202R
With B3, in test [1], the binding entry is listed as “no binding”.

B4: Pfk27 (protein, UniProt Q12471 1-397)
chain: MGGSSDSDSHDGYLTSEYNSSNSLFSLNTGNSYSSASLDRATLDCQDSVFFDNHKSSLLSTEVPRFISNDPLHLPITLNYKRDNADPTYTNGKVNKFMIVLIGLPATGKSTISSHLIQCLKNNPLTNSLRCKVFNAGKIRRQISCATISKPLLLSNTSSEDLFNPKNNDKKETYARITLQKLFHEINNDECDVGIFDATNSTIERRRFIFEEVCSFNTDELSSFNLVPIILQVSCFNRSFIKYNIHNKSFNEDYLDKPYELAIKDFAKRLKHYYSQFTPFSLDEFNQIHRYISQHEEIDTSLFFFNVINAGVVEPHSLNQSHYPSTCGKQIRDTIMVIENFINHYSQMFGFEYIEAVKLFFESFGNSSEETLTTLDSVVNDKFFDDLQSLIESNGFA
With B4, the binding entry in test [1] was “binds”; in test [2], “no binding”; in test [3] it was “no binding”.

B5: Gic2 (protein, UniProt Q06648 1-383)
chain: MTSASITNTGNETMNLPQMRSIWLDEDEEAEKLYGLQAQQFMGSDDEENLGITFINSDKPVLSNKKNIELPPLSPNSHPSCHHRRSNSNSAKSKESSSSSSSANKTNHKKVFLKLNLLKKKLLGAQPDIRGKGISTPFDFQHISHADTRNGFQDEQLQEPSSLSTEIKDDYTSSSSKRDSKSLNKAFVTERIPANRESKLISRSHENKTSRLSVARSISVTSSNYSKNTQGNNHSINGRVVSTSTMATSIFEYSPNASPKQFKNKSHALGHRYTNSTDSSESSLDFLKNYNFPTLLEDKPILDFLPRSQRSSAYRSLLETPNSNKDSAKAFFPSRQSPLPKRRNSIATPSPQSKFSYSDSPVNHRKSFDDVLYSFNQLEPLQT
As to B5, the binding entry was “binds” in test [1], “no binding” in test [2] and “no binding” in test [3].
